Measured values from ChEMBL document CHEMBL1157539, “Thousands of chemical starting points for antimalarial lead identification” (Nature, 2010).
In all, about 13,000 compounds were measured (“IFI”: median about 4, highest 2% from about 17 on). The list shows a part of the results.

Assay: GSK_TCMDC: Inhibition Frequency Index (IFI). The number of non-kinase HTS assays where a compound showed > 50 % inhibition, expressed as a percentage of the number of such assays in which the compound was tested (-0 is zero)
Format: functional

Row | SMILES | IFI [%]
1 | CCN(CC)CCCC(C)Nc1c2ccccc2nc2c1ccc1ccccc12 (stereo not drawn) | 2.33
2 | O=C(N[C@@H](CC1CCCCC1)C(=O)NCCc1ccc(Cl)c(Cl)c1)c1ccc(O)c(-c2ccc(Cl)c(Cl)c2)c1 | 2.22
3 | Cc1ccc2nc3sc(C(=O)NCCCN4CCC(N5CCCCC5)CC4)cc3cc2c1 | 2.94
4 | CN(C)CCOc1ccc(N2CCN(CCCCNC(=O)c3ccc(NC(=O)c4ccc(Cl)cc4)cc3)CC2)cc1 | 5.45
5 | COc1ccc(CC(=O)NC(CCN2CCC3(CC2)CN(S(C)(=O)=O)c2ccccc23)c2ccc(Cl)c(Cl)c2)cc1OC (stereo not drawn) | 3.45
6 | Cc1sc2nc(CN3CCCC3)nc(-n3c(NCCO)nc4ccccc43)c2c1C | 9.3
7 | COc1cc(OC)cc(-c2nn(-c3ccc([N+](=O)[O-])cc3C#N)c(=S)n2Cc2ccco2)c1 | 1.39
8 | Cc1cc(-c2cccc3c(C(=O)N4CCc5cc6nccc(N7CCN8CCC[C@H]8C7)c6cc54)cccc23)cc(C)n1 | 2.96
9 | Cc1ccc(S(=O)(=O)N2CCCN(C(=O)c3cc(-c4ccccc4)[nH]n3)CC2)cc1 | -0
10 | N=C(NCCCc1ccccc1)c1cccc(C(=N)NCCCc2ccccc2)n1 | 1.47
11 | COc1ccc(-n2nc(C(=O)NCc3ccccc3OC)c3ccccc3c2=O)cc1 | 2.13
12 | CCCC1(NC[C@@H](O)[C@H](Cc2ccccc2)NC(=O)c2cc(NCC)cc(N3CCCCS3(=O)=O)c2)CC1 | 3.01
13 | O=C(c1ccc(OCCn2ccnc2)cc1)N1CCC(c2ccc(Br)cc2)C1 (stereo not drawn) | 2.38
14 | O=C(Cc1cccc(Cl)c1)Nc1cccc(-c2c[nH]c3nc(Nc4cccc(OCc5ccccc5)c4)ncc23)c1 | 1.53
15 | Cc1nc2ccc(NC(=O)Nc3ccnc4ccc(C(F)(F)F)cc34)cc2o1 | 1.52
16 | Cc1cnc(NCC2CCCCC2)nc1N[C@@H](CO)C(=O)Nc1ccccc1 | 4.88
17 | O=C(/C=C/c1ccc(Cl)c(Cl)c1)NCCCCCN1CCC(C(=O)Nc2ccc3c(c2)OCO3)CC1 | 6.86
18 | CCCCCCn1c(Sc2ccc(C#N)c([N+](=O)[O-])c2)nnc1-c1cc(OC)cc(OC)c1 | 9.93
19 | COc1ccc(N2CCN(CCCCNC(=O)c3ccc(/C=C/c4ccc(Cl)c(Cl)c4)cc3)CC2)c(OC)c1 | 3.54
20 | CC(C)c1ccc(NC(=O)c2cccc(CN3CCCN(Cc4cccc(C#N)c4)CC3)c2)cc1 | 8.22
21 | O=C(Nc1ccc(Cl)c(-c2nc3ccccc3[nH]2)c1)c1ccc(-c2ccc(Cl)cc2)o1 | 2.82
22 | Cc1nc2ccc(-c3nc4cc(N)ccc4[nH]3)cc2[nH]1 | 5.8

Row | SMILES | IFI [%]
23 | Nc1cccc(CNCc2ccc(-c3cccc(-c4nc5ccccc5[nH]4)c3)cc2)c1 | 6.54
24 | O=C(NCCCCN1CCC(c2ccc3c(c2O)CCCC3)CC1)c1ccc(-c2ccc(Cl)cc2)cc1 | 12
25 | N#CC(c1ccc(F)cc1)c1ccc2c(C(F)(F)F)cc(C(F)(F)F)nc2n1 (stereo not drawn) | 9.7
26 | COc1ccccc1C1CCN(C2CCC(NC(=O)c3ccc4[nH]c(-c5ccc(C)cc5)nc4c3)CC2)CC1 (stereo not drawn) | 11.3
27 | COc1cc(Br)c(S(=O)(=O)n2cc(CN3CCC(N)CC3)c3cc(Cl)ccc32)cc1OC | 12.7
28 | O=S(=O)(c1cccc(Br)c1)N1CCCCC(c2ccc(C(F)(F)F)cc2)=N1 | 0.74
29 | CC1(C)CCC(C)(C)c2c1ccc(C1CCN(CCCCNC(=O)c3ccc(-c4ccc(C#N)cc4)cc3)CC1)c2OCC(N)=O | 5.47
30 | CC(=O)Nc1ccc(CN2CCC(NC(=O)c3ccc(-c4ccc(N(C)C)cc4)s3)CC2)cc1 | 7.02
31 | COc1cccc(CN2CCC(N3CCc4cc(NC(=O)c5cc(C)on5)ccc43)C2)c1OC (stereo not drawn) | 0
32 | c1ccc2c(NCCCCCCCCCNc3ccnc4ccccc34)ccnc2c1 | 12.1
33 | Nc1n[nH]c(-c2ccccc2Nc2ccnc3cc(-c4nccs4)ccc23)n1 | 3.7
34 | CCN(CC)CCN(Cc1ccc(-c2ccc(Cl)s2)cc1)C(=O)Cn1c(CCc2cccc(F)c2F)nc(=O)c2ccccc21 | 5.15
35 | Cc1ccc(C(=O)Cn2nc(-c3ccc(C)c(S(=O)(=O)N4CCCC4)c3)ccc2=O)cc1 | -0
36 | Cc1cc(N/N=C/c2ccccc2[N+](=O)[O-])c2cc(C(F)(F)F)ccc2n1 | 0
37 | N=C1NC(=O)C(=Cc2cn(-c3ccccc3)nc2-c2cccc(S(=O)(=O)N3CCCC3)c2)S1 | 0
38 | CCC1(CC)N=C(N)N=C(N)C1c1ccc(Cl)c(Cl)c1 (stereo not drawn) | 0.75
39 | COc1cccc2cc(C(=O)N[C@@H](CC(C)C)C(=O)N[C@H](C=NNC(=O)OC(C)(C)C)CC(C)C)oc12 | 3.67
40 | CCOC(=O)Nc1cc(-c2csc(N=C(N)N)n2)cc([N+](=O)[O-])c1 | 1.45
41 | O=C(Nc1ccccc1)N(Cc1ccc(-c2cccc(CNC3CCCC3)c2)cc1)C1CCN(Cc2ccccc2)CC1 | 7.04
42 | COC(=O)Nc1cc(C(F)(F)F)ccc1N1CCC(CNS(=O)(=O)c2ccc(OC)cc2)CC1 | 7.04
43 | NC12CC3CC(CC(C3)C1)C2 | 1.42
44 | CN1CCCC1CCNc1ncc2c(-c3ccc(NC(=O)Nc4cc(C(F)(F)F)ccc4F)cc3)nn(C)c2n1 (stereo not drawn) | 9.3

Row | SMILES | IFI [%]
45 | CCCC1CCNC(C(O)c2ccnc3ccc(OC)cc23)C1 (stereo not drawn) | 0.79
46 | COc1ccc(-n2cc(CNCCCn3ccnc3)c(-c3cccc(F)c3)n2)cc1 | 12.2
47 | CC(C)Cc1cn(-c2nc(-c3nc4ccccc4[nH]3)cs2)c2cc(Cl)ccc12 | 1.18
48 | COc1ccc2nccc([C@@H](O)CN3CCC(NCc4nc5c(cc4F)SCC(=O)N5)C(F)C3)c2c1 (stereo partly drawn) | 4.76
49 | O=C(Nc1ccc(Cl)cc1)c1cc(Cl)ccc1NC(=O)C1(c2ccc(Cl)cc2)CCCC1 | 5.56
50 | O=C(N/C=N/c1cc([N+](=O)[O-])c(-c2ccncc2)n1-c1ccccc1)c1cccc(O)c1 | 2.11
51 | COc1cc(F)c2nccc([C@@H](O)CN3CCC(NCc4nc5cccc(F)c5[nH]4)CC3)c2c1 | 2.13
52 | OC[C@H]1CCCN1CC#Cc1cc2c(Nc3ccc(OCc4cccc(F)c4)c(Cl)c3)ncnc2s1 | 2.92
53 | COc1ccc2ncn(-c3ccc(C(N)=O)c(OCc4ccccc4C(F)(F)F)c3)c2c1 | 3.1
54 | Cc1ccc(CON2C(N)=NC(N)=NC23CCCCC3)c2ccccc12 | 6.47
55 | Cn1nc(-c2ccc(CNC3CCc4ccccc43)cc2)c2cnc(NCCCN3CCCC3)nc21 (stereo not drawn) | 3.85
56 | COc1ccc(N2C(=O)C3C(C2=O)C2(C)c4ccccc4C3(C)c3ccccc32)c([N+](=O)[O-])c1 (stereo not drawn) | 0
57 | c1csc(-c2nc(N3CCCCC3)ncc2-c2ccsc2)n1 | 6.82
58 | NCC1CCCN1Cc1ccc(-c2ccc(-c3nc4ccccc4[nH]3)s2)cc1 (stereo not drawn) | 8.91
59 | Cc1ccc(C(=O)Nc2ccc(F)c(F)c2F)cc1S(=O)(=O)N1CCCCC1 | 1.85
60 | O=C(/C=C/c1ccc(Cl)c(Cl)c1)NCCCCCN1CCC(NC(=O)c2ccc3ccccc3c2)CC1 | 3.88
61 | CC(C)(C)OC(=O)N1CCN(c2ccccc2NC(=O)c2cccc(C(F)(F)F)c2Oc2ccc(F)cc2)CC1 | 0.7
62 | CNC(=O)c1cnc(Nc2ccc(OCC(O)CN(C)C)cc2)nc1Nc1cccc(Br)c1 (stereo not drawn) | 4.44
63 | COc1ccc(N2CCN(CCCOc3ccc(NC(=O)c4cc(Cl)cc(Cl)c4)cc3)CC2)c(OC)c1 | 8.77
64 | CC(=O)Nc1nc(C(=O)Nc2ccc(-c3cccc(-c4nc5ccccc5[nH]4)c3)cc2)cs1 | 6.42
65 | C=CCn1c(=N)n(CC(O)c2ccc(Cl)c(Cl)c2)c2ccccc21 (stereo not drawn) | 2.19
66 | Fc1cccc(C=NN=c2cc[nH]c3ccc(C(F)(F)F)cc23)c1 | -0

Row | SMILES | IFI [%]
67 | COc1ccccc1C1CC(c2ccc(C)cc2)=NN1C(=O)c1ccccc1 (stereo not drawn) | 1.99
68 | CN1CC[C@@H](Oc2cc(NC(=O)Nc3ccccc3Br)ccc2Cl)C1 | 1.75
69 | Cc1nc(N)nc(N)c1Oc1cccc(Cl)c1 | -0
70 | CC(C)Sc1nncc(-c2cnnc(SC(C)C)n2)n1 | -0
71 | CCCOc1ccc(NC(=O)c2cccs2)cc1Cl | 3.7
72 | O=C(Nc1ccc(Cl)cc1)c1ccc(CN2CCCN(Cc3cccc(F)c3)CC2)cc1 | 9.52
73 | Cc1c(C2CCN(CCCCNC(=O)c3ccc(-c4ccc(C#N)cc4)cc3)CC2)c2ccccc2n1CCO | 1.83
74 | Cc1cc(=NN=Cc2ccc(F)cc2)c2cccc(C)c2[nH]1 | -0
75 | O=C(Nc1cccc(C(F)(F)F)c1)N1CCOC(CCN2CCC(c3ccccc3)CC2)(c2ccc(Cl)c(Cl)c2)C1 (stereo not drawn) | 8.11
76 | Cc1cc(N)c2cc(NC(=O)c3cccc4ccccc34)ccc2n1 | 0
77 | CCN(CC)CCCN1CCN(C(=O)c2cccc(-c3noc(C(F)(F)F)n3)c2)CC1 | 0.94
78 | CCN(CC)CCN(Cc1ccc(-c2ccc(C(F)(F)F)cc2)cc1)C(=O)c1ccc(-c2ccc(C#N)cc2)cc1 | 6.9
79 | O=C(Nc1cc(Cl)cc(Cl)c1)c1cc(Cl)c(=O)n(Cc2ccc(Cl)cc2)c1 | 5.59
80 | CC(Oc1c(C2CCN(CCCCNC(=O)c3ccc(-c4ccc(C#N)cc4)cc3)CC2)ccc2c1CCCC2)C(N)=O (stereo not drawn) | 5.71
81 | O=C(Nc1cc(C(F)(F)F)cc(C(F)(F)F)c1)NC(CCCN1CCC2(CC1)OCc1ccccc12)c1ccc(Cl)c(Cl)c1 (stereo not drawn) | 10.6
82 | COc1ccc(Nc2ncc3c(-c4cccc(NC(=O)c5ccccc5)c4)c[nH]c3n2)cc1OC | 5.56
83 | Cc1cc(O)c2c(c1)OC(C)(C)C=C2C1=CCN(Cc2ccccc2)CC1 | 0.72
84 | CCc1c(CCNCCCCCCNC(C)Cc2ccc3c(c2CC)OCO3)ccc(OC)c1OC (stereo not drawn) | 10.7
85 | CCCCCCN1CCCN(Cc2ccc(C(=O)Nc3ccc(Cl)cc3)cc2)CC1 | 15.2
86 | CC(C)CC(NC(=O)c1cccc(OCCN2CCOCC2)c1)C(=O)NC(/C=N/NC(=O)c1ccccc1)CCc1ccccc1 (stereo not drawn) | 6.25
87 | CCc1c(C)nc(-n2nc(C)cc2NC(=O)C2c3ccccc3Oc3ccccc32)[nH]c1=O | 9.62
88 | Oc1ccc(CCNc2nc(NCc3cccc(-c4cc(C(F)(F)F)ccc4Cl)c3)nc(N3CCNCC3)n2)cc1 | 9.38
